Test results taken from PubChem BioAssay AID1347165 (National Center for Advancing Translational Sciences (NCATS), 2019).
The campaign covered roughly 220,000 compounds. About 5,700 (2.6%) were called active. The shares of active, inactive and inconclusive entries below differ from those in the screen. Calls come from the whole dose curve; as a rule, active = well fitted inhibition curve with a large enough effect; inconclusive = small, poorly fitted or top-dose-only effect; inactive = no such curve, though single readings can be large or run the other way. Potencies beside an inconclusive call are fits to weak or partial responses and may not hold up.

target: Lysine-specific demethylase 5B (Homo sapiens) (UniProt Q9UGL1); test: Primary screen for KDM5B Histone Demethylases FDH-coupled qHTS; settings: FDH-coupled NADH fluorescence (FDH is formaldehyde dehydrogenase); activity change, negative = inhibition: at 57.7 µM (top of the series) unless noted; note: nearly all actives have a fitted effect of over 70% in size; for activity change, negative = inhibition: 0% is about no effect
How it was run: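 Coupled FDH/NAD⁺ fluorescence readout. KDM5BΔAP 200 nM final; compound titration, 10 min RT preincubation; substrate mix 12.5 µM H3K4me3, 25 µM 2-OG, 50 µM Fe(II), 100 µM ascorbate, 0.25 mM NAD⁺, 0.25 U/mL FDH; ΔRFU over 30 min.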
Potency is the fitted concentration of half-maximal effect; tags give direction and shape of the fitted curve.

Sequence of UniProt Q9UGL1 (Q9UGL1 whole entry, looked up): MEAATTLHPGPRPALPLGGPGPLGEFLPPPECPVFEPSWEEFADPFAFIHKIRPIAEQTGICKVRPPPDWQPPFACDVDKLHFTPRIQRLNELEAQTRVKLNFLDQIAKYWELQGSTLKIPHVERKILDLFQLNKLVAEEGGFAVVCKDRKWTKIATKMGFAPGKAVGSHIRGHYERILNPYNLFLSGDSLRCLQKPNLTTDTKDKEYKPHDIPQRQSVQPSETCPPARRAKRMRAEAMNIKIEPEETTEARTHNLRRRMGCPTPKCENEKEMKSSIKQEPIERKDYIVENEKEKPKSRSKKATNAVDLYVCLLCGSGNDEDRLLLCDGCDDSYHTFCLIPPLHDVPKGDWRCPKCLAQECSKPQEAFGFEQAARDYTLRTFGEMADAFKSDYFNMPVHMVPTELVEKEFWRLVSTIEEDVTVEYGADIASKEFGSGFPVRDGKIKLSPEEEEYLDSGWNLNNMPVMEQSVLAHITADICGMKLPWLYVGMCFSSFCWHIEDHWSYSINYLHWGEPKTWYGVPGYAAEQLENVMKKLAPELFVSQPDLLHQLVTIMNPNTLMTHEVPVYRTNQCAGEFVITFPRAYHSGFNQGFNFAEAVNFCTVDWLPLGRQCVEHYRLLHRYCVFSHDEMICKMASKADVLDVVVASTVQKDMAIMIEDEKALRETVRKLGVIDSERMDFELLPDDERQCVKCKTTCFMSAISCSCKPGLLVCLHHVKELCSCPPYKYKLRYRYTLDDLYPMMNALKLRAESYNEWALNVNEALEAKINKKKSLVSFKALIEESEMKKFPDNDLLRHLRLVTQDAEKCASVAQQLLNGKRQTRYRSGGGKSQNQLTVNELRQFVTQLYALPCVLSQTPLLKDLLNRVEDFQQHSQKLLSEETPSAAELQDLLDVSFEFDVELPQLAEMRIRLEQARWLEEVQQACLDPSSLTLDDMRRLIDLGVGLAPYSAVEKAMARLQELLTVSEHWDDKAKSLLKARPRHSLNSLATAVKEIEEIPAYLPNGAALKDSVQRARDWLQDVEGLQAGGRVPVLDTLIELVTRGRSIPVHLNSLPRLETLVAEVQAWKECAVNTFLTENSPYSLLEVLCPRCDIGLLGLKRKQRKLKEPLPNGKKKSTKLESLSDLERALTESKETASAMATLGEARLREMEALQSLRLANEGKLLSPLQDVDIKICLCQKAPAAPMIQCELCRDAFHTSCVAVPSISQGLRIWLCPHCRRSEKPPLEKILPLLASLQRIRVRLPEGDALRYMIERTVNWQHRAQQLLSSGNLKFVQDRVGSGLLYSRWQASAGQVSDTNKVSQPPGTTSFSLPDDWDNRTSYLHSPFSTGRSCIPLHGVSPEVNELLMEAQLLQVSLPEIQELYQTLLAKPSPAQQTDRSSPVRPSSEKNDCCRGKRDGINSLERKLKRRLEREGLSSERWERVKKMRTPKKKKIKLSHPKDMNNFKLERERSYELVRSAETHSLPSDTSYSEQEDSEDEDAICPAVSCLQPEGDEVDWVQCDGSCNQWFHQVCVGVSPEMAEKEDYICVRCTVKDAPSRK

Structure (SMILES) | Potency | activity change, negative = inhibition
COc1ccc(-c2cn3nc(SCC(=O)Nc4cccc(C)c4C)ccc3n2)cc1 | inconclusive: 3.16 µM [inhibitor, full curve, poor fit] | –
O=S(=O)(c1ccccc1C(F)(F)F)N1CCC(C2CCNC2)CC1 (configuration not stated) | – | inactive: 16%
Cc1[nH]c2ccccc2c1C(c1ccccc1O)c1c(C)[nH]c2ccccc12 | inconclusive: 28.2 µM [inhibitor, partial curve, poor fit] | –
Cc1ccsc1CN(Cc1ccco1)c1cnc(S(C)(=O)=O)nc1C(=O)Nc1ccc(Cl)cc1 | inconclusive: 28.2 µM [inhibitor, partial curve, poor fit] | –
CCCC(=O)N1CCC2(CC1)NCCc1c2[nH]c2ccc(OC)cc12 | inconclusive: 31.6 µM [inhibitor, single point] | –
COc1ccccc1-c1cnc2n[nH]c(-c3ccccc3)c2n1 | active: 35.5 µM | –
COc1ccc(CNC(=O)CCCn2c(C)c3cnn(-c4ccccc4)c(=O)c3c2C)cc1 | – | inactive: 0.0928%
O=S(=O)(NC[C@H]1OC[C@@H](NCc2ncc[nH]2)[C@@H]1O)c1ccccc1 | inconclusive: 15.8 µM [inhibitor, partial curve, poor fit] | –
O=C(NCc1ccnc2[nH]ccc12)c1ccccc1Cl | active: 35.5 µM | –
Cc1ccc(-c2cc3c(=O)n(CCNC(=O)c4ccc(F)c(F)c4)ccn3n2)cc1C | inconclusive: 35.5 µM [inhibitor, single point] | –
C=CCn1c(SCCCc2ccccc2)nc2c1c(=O)n(C)c(=O)n2C | – | inactive: -19.1%
CC(C)CN1C(=O)c2cccn2CC1C(=O)N1CCN(c2ncccn2)CC1 (configuration not stated) | inconclusive: 20 µM [inhibitor, partial curve, poor fit] | –
CC1(C)OC2OC(C(=O)Oc3ccccc3)C3OC(C)(C)OC3C2O1 (configuration not stated) | – | inactive: -9.9%
COCC(=O)N[C@@H]1CN(Cc2ccncc2)C[C@H]1CN(C)C | active: 25.1 µM | –
COc1cccc(NC(=O)/C=C/c2ccc([N+](=O)[O-])cc2)c1 | inconclusive: 20 µM [inhibitor, single point] | –
CCOc1ccc(-c2nc(C#N)c(NCC(C)C)o2)cc1 | inconclusive: 1.78 µM [inhibitor, full curve, poor fit] | –
Cc1ccc(S(=O)(=O)N2CC(C)N(S(C)(=O)=O)C2)cc1 (configuration not stated) | – | inactive: 29.2%
CCc1ccccc1NC(=O)CN(c1cc(C(F)(F)F)ccc1Cl)S(=O)(=O)c1ccccc1 | inconclusive: 1.12 µM [inhibitor, partial curve, poor fit] | –
COc1cc(B(O)O)ccc1Cl | – | inactive: -9.25%
COC(=O)c1ccccc1NC(=O)NCc1ccc2c(c1)CCN2C(=O)c1ccccc1 | – | inconclusive: -43.8% [inhibitor]
CCc1noc(-c2ccn3c(CNC(=O)CCCc4ccccc4)nnc3c2)n1 | active: 7.08 µM | –
CCC1CN(S(=O)(=O)c2cc(-c3cc(C)no3)ccc2OC)c2cc(Cl)ccc2O1 (configuration not stated) | – | inconclusive: -36% [inhibitor]
O=C(CC1CCCC1)N1CCC(c2nc(C3CCOCC3)no2)C1 (configuration not stated) | inconclusive: 22.4 µM [inhibitor, single point] | –

Structure (SMILES) | Potency | activity change, negative = inhibition
COc1c(C2CC(=O)Nc3c2ncn3-c2cccc(C(F)(F)F)c2)cc2c(c1OC)OCO2 (configuration not stated) | – | inactive: 168%
COc1cccc(C(=O)Nc2c(N3CCCC3)c3ccccc3oc2=O)c1 | – | inactive: 16.2%
Cn1cc(-c2ccc3c(n2)CN(CCOc2ccccc2)C(=O)CO3)cn1 | inconclusive: 39.8 µM [inhibitor, partial curve, poor fit] | –
COc1ccc(C(=O)NCc2cn3ccc(C)cc3n2)cc1 | inconclusive: 35.5 µM [inhibitor, partial curve, poor fit] | –
COc1cccc(-c2cc(C(=O)NCc3c(C)cc(C)[nH]c3=O)c3c(c2)ncn3C)c1OC | – | inactive: -20.6%
COc1ccccc1C(C)N(C)C(=O)CCc1ncc(-c2ccc(F)cc2)o1 (configuration not stated) | – | inactive: 0.53%
CC(=O)N1CCc2c(sc3c2c(=O)n(-c2ccccc2C)c(=O)n3CC(=O)Nc2ccccc2)C1 | inconclusive: 28.2 µM [inhibitor, partial curve, poor fit] | –
Cn1c(=O)sc2cc(NS(=O)(=O)c3ccc(C(C)(C)C)cc3)ccc21 | inconclusive: 10 µM [inhibitor, partial curve, poor fit] | –
Cc1ccc(S(=O)(=O)c2nc(-c3cccs3)oc2N2CCC(C)CC2)cc1 | inconclusive: 35.5 µM [inhibitor, single point] | –
CCCc1nnc(NC(=O)c2cc(-c3ccccc3)on2)s1 | – | inactive: 16.1%
O=C(CC1CCCO1)NC(c1ccccc1)C1CCCCC1 (configuration not stated) | – | inactive: -5%
CCCCOc1ccc(NC(=O)COc2ccccc2C)c2cccnc12 | inconclusive: 28.2 µM [inhibitor, partial curve, poor fit] | –
Cc1cccc(N(C)C(=O)Cn2c(-c3cccc(Cl)c3)nc(C)c(CCO)c2=O)c1 | – | inactive: -20%
CN(C)c1ccc(-c2nnc([C@H]3CCN(Cc4ccccc4F)C3)o2)cc1 | inconclusive: 44.7 µM [inhibitor, partial curve, poor fit] | –
CCCCN(CC)C(=O)CSc1nc2c(sc3ccccc32)c(=O)n1CCc1ccccc1 | inconclusive: 1.26 µM [inhibitor, partial curve, poor fit] | –
CCc1ccccc1Nc1sc(C(=O)c2ccccc2)c(N)c1S(=O)(=O)c1ccccc1 | inconclusive: 22.4 µM [inhibitor, partial curve, poor fit] | –
CCN(Cc1ccccc1)C(=O)CC1C(=O)NCCN1CCc1ccccc1 (configuration not stated) | inconclusive: 12.6 µM [inhibitor, partial curve, poor fit] | –
CCO[C@H]1CN(C(=O)CCc2ccc(S(=O)(=O)NC)cc2)C[C@@H]1O | inconclusive: 28.2 µM [inhibitor, single point] | –
CCCC1=C(C(=O)OCC)C(c2ccccc2C)C(C#N)=C(N)O1 (configuration not stated) | inconclusive: 39.8 µM [inhibitor, single point] | –
CN1CCc2c(sc3c2C(=O)NC(c2ccc(OC(=O)c4ccc(Cl)cc4)cc2)N3)C1 (configuration not stated) | inconclusive: 22.4 µM [inhibitor, partial curve, poor fit] | –
COc1ccc(-c2nn(-c3ccccc3C)cc2CN2CCCC2c2nonc2C)cc1F (configuration not stated) | inconclusive: 28.2 µM [inhibitor, single point] | –
COCCC(=O)Nc1cccnc1OC1CCN(C)C1 (configuration not stated) | inconclusive: 11.2 µM [inhibitor, partial curve, poor fit] | –
Cc1ccc(OCC(=O)Nc2nc(-c3ccc(Br)s3)ns2)cc1C | inconclusive: 22.4 µM [inhibitor, single point] | –

Structure (SMILES) | Potency | activity change, negative = inhibition
Fc1ccccc1-c1noc2c1CN(Cc1cccn1-c1nccs1)CC2 | inconclusive: 22.4 µM [inhibitor, partial curve, poor fit] | –
Cc1cccc(OCCOc2ccc3ccc(=O)oc3c2)c1 | inconclusive: 17.8 µM [inhibitor, single point] | –
CCOc1ccc(CCNC(=O)c2ccc(CS(=O)Cc3ccc(Cl)cc3)o2)cc1 (configuration not stated) | – | inconclusive: -32.5% [inhibitor]
Cc1ccc(O)c(N/C=C/C(=O)C(C)(C)C)c1 | inconclusive: 25.1 µM [inhibitor, partial curve, poor fit] | –
N#C/C(=C\c1ccc(-c2ccc(C(=O)O)cc2)o1)c1nc2ccccc2[nH]1 | inconclusive: 12.6 µM [inhibitor, partial curve, poor fit] | –
COc1ccc(Cl)cc1NC(=O)Cn1cc(S(=O)(=O)Cc2cccc(Cl)c2)c2ccccc21 | inconclusive: 25.1 µM [inhibitor, single point] | –
CN(CC(=O)Nc1ccc2[nH]c(=O)[nH]c2c1)Cc1ccc2c(c1)OCO2 | inconclusive: 15.8 µM [inhibitor, partial curve, poor fit] | –
COc1cc(NC(=O)Cn2nc3c(cc2=O)CN(C(C)=O)CC3)cc(OC)c1 | – | inactive: -1.22%
COc1ccc(-c2nc(CSCC(=O)NC3CCCCCC3)co2)cc1 | – | inactive: -14.8%
COc1cc2ncc3c(-c4ccccc4)nn(-c4ccc(C)cc4)c3c2cc1OC | inconclusive: 25.1 µM [inhibitor, single point] | –
COC(=O)c1cc(Br)ccc1NC(=O)c1ccc(OC)cc1 | – | inactive: -8.65%
CN1CCN(c2ccc(NC(=O)c3cc(F)cc(F)c3)nc2)CC1 | – | inactive: 11.2%
O=C1c2ccccc2NC(c2cc3ccccc3[nH]c2=O)N1C1CC1 (configuration not stated) | inconclusive: 39.8 µM [inhibitor, partial curve, poor fit] | –
CC(C)(C)C(=O)CN1C(=O)N(c2ccc(Cl)cc2)S(=O)(=O)c2ccccc21 | – | inactive: -17.3%
Cc1cn2nc(C(=O)Nc3ccc(C(F)(F)F)cc3)cc2c(N2CCSCC2)n1 | active: 28.2 µM | –
O=C(NCC1CCN(c2cc(-c3ccc(Cl)cc3)[nH]n2)CC1)c1ccc[nH]1 | inconclusive: 25.1 µM [inhibitor, partial curve, poor fit] | –
COc1ccc(N2CCN(C(=O)c3nn(-c4ccc(C)cc4)c(=O)n(C)c3=O)CC2)cc1 | inconclusive: 14.1 µM [inhibitor, partial curve, poor fit] | –
CC(NC(=O)c1ccccc1O)C(C)(C)C (configuration not stated) | inconclusive: 22.4 µM [inhibitor, partial curve, poor fit] | –
Cc1cc(C(=O)N2CCCCC2)c2c(C3CCNC3)noc2n1 (configuration not stated) | active: 89.1 µM | –
CC1CCCN(C(=O)C2CCN(Cc3ccc(C(F)(F)F)cc3)CC2)C1 (configuration not stated) | – | inactive: -39.5%
CCOC(=O)c1cc(-c2ccc(OC)cc2)nn1Cc1ccccc1 | inconclusive: 31.6 µM [inhibitor, single point] | –
